According to publication PMC4336329 (PLoS ONE, 2015):
In all, about 310,000 compounds went through this assay and about 14,000 (4.5%) showed an effect of 50% or more. Effects have a minus sign here. Some of the results follow.

molecular target: human ether-à-go-go-related gene (hERG) potassium channel (human, UniProt Q12809); test: primary screen, population patch clamp on CHO cells stably expressing hERG
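Also: peak tail current of the secondary pulse compared with the same well before compound.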

Sequence of human ether-à-go-go-related gene (hERG) potassium channel (Q12809 whole entry, looked up): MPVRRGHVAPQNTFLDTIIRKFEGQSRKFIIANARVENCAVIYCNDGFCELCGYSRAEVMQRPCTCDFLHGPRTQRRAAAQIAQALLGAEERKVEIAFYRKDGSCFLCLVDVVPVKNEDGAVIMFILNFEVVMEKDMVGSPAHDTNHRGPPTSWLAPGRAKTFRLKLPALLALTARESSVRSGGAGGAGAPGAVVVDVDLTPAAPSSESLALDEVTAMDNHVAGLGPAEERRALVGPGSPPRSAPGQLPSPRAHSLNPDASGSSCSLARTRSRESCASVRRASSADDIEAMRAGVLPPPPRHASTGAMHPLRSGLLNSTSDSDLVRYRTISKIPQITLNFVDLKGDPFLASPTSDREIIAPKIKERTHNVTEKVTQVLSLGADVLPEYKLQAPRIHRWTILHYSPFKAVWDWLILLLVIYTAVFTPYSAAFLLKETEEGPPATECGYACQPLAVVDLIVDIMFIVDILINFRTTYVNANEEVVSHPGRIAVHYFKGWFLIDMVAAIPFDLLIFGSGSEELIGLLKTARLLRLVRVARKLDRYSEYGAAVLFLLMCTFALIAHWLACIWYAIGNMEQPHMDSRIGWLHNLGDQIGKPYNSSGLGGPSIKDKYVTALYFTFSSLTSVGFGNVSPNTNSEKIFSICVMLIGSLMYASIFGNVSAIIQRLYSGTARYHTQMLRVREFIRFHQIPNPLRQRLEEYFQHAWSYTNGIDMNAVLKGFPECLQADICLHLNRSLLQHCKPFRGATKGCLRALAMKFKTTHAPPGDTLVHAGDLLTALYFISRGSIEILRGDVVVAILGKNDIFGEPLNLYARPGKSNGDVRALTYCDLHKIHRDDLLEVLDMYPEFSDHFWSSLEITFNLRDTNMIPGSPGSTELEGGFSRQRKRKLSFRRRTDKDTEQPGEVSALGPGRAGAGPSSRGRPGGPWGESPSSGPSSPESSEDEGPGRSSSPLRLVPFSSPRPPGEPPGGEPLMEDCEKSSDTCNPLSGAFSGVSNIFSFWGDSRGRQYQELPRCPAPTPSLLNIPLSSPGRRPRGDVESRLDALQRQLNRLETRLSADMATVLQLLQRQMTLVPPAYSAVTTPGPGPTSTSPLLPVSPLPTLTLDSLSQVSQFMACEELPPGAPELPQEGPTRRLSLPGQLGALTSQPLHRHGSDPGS

Point of comparison: `Cc1ccc(-c2nc(N)n(S(=O)(=O)c3ccc(C)cc3)n2)cc1`, “hERG current change (%, negative = inhibition) at 10uM” value 16%. Against it:
- COc1ccc(/C=N/NS(=O)(=O)c2ccc(NC(C)=O)cc2)cc1 — lower, -8.43%
- O=C(O/N=C/c1ccc(Cl)cc1)C1CCCCC1 — lower, 9.03%
- O=C(CSc1nnc(Cc2ccccc2)o1)NCc1ccc2c(c1)OCO2 — lower, -5.66%
- CCC(=O)Nc1ccc2c(c1)ncn2-c1ccc(C)cc1 — lower, 4.96%
- COCCn1c(N)c(Sc2ccc(C)cc2)c(=O)[nH]c1=O — lower, 8.4%
- O=C(CC(c1ccccc1)c1ccco1)N1CCCCC1 (stereo not shown) — lower, -1.93%
- O=C(Nc1cccc([N+](=O)[O-])c1)c1ccncc1 — lower, -11.3%
- COc1ccc(-n2c(=O)c(CCC(=O)NCCc3ccccc3F)nc3ccccc32)cc1 — lower, -14.1%
- Cc1noc(C)c1CSCC(=O)Nc1ccccc1N1CCCCC1 — lower, -0.57%
- CC(=O)Nc1cccc(-c2nc3ccccc3s2)c1 — lower, -13.4%
- CCOc1ccc(S(=O)(=O)N(CC)CC(=O)NCc2ccncc2)cc1 — lower, -13.2%
- CC(CCc1ccccc1)NC(=O)C(Cc1ccccc1)NS(=O)(=O)c1cccs1 (stereo not shown) — lower, 11.3%
- CN(CC(=O)Nc1cccc(F)c1)CC(=O)N1CCc2ccccc21 — lower, -28.2%
- Cc1csc(NC(=O)NCC2CCCC(CNC(=O)Nc3nc(C)cs3)C2)n1 (stereo not shown) — lower, 7.05%
- CCCCN(C(=O)CC(c1ccccc1)c1ccccc1)c1c(N)n(CCC)c(=O)[nH]c1=O — lower, -7.44%
- COc1ccc(N(CC(=O)NCc2ccc(F)cc2)C(=O)c2snc(C(N)=O)c2N)cc1 — lower, 9.3%
- COc1ccc(N(CC(=O)N/N=C/c2cc3ccc(OC)cc3nc2Cl)S(=O)(=O)c2ccccc2)cc1 — lower, 0.803%
- CCC(C)NC(=O)Cc1ccc(-c2ccccc2)cc1 (stereo not shown) — lower, 15.2%
- N#CCCn1cc(/C=C2\NC(=S)N(c3ccccc3)C2=O)c(-c2ccc(F)cc2)n1 — higher, 18.3%
- CCOc1cccc(CNCCCSc2ncccn2)c1.Cl — lower, -23.8%
- COc1ccc(NC(=S)NCc2ccc(S(N)(=O)=O)cc2)cc1OC — higher, 18%
- COc1ccc(NC(=O)CN(C2CCCCC2)S(C)(=O)=O)cc1OC — lower, -0.377%
- O=C(COc1ccccc1N1C(=O)C2C3C=CC(C3)C2C1=O)c1ccccc1 (stereo not shown) — lower, -1.53%
- Clc1ncccc1-c1nnn(-c2ccccc2)n1 — lower, 15.1%
- O=C(Cn1ccc(NC(=O)OCc2ccccc2)nc1=O)NCCc1c[nH]c2ccccc12 — lower, 15.9%
- C1CCN=C(Nc2nn[nH]n2)CC1 — higher, 16.2%
- O=C(c1ccccc1)N1CCN(C(=O)c2ccc3c(c2)OCO3)CC1 — lower, 4.32%
- COc1ccc(C2c3ccc(O)cc3Oc3ncn(Cc4ccco4)c(=N)c32)cc1 (stereo not shown) — lower, -71.9%
- COc1cc(/C=C2/SC(=S)N(CC(=O)NC(C)(C)C)C2=O)cc(OC)c1OC — lower, 14.3%
- CCCCn1c(SC(C)C(N)=O)nc2cc(C(=O)OC)ccc2c1=O (stereo not shown) — lower, -1.48%
- CCOC(=O)C(NC(C)=O)(OCc1ccc(F)cc1)C(F)(F)F (stereo not shown) — lower, 7.18%
- CCOc1ccccc1/C=C/c1cc(C(=O)O)c2ccccc2n1 — lower, 13.3%
- COc1ccc(OC)c(NC(=O)CCN2CCN(c3ccccc3OC)CC2)c1 — lower, 2.82%
- COc1ccc(C(=O)Nn2c(SCC(=O)NCc3ccccc3)nc3ccccc3c2=O)cc1 — lower, -8.34%
- CSc1nc2ccc(NC(=O)c3ccc(=O)[nH]c3)cc2s1 — lower, 12.5%
- CCOC(=O)C1CCN(CC(=O)Nc2c(C(=O)OC)n(C)c3cccc(C)c23)CC1 — lower, -10.4%
- CCc1ccc(S(=O)(=O)Nc2cc(SCC(=O)O)c(O)c3ccccc23)cc1 — lower, 4.3%
- Cc1cccc(NC(=O)NNC(=O)c2ccc(C)c([N+](=O)[O-])c2)c1 — lower, 5.97%
- Cc1noc(C)c1CSCC(=O)N(C)CC(=O)Nc1ccccc1Br — lower, 6.84%
- Cc1cc(=O)[nH]c(SCC(=O)Nc2cccc(S(=O)(=O)N3CCOCC3)c2)n1 — lower, 13.5%
- CCN(C(=O)Cc1c(C(=O)O)[nH]c2ccccc12)c1ccc(OC)cc1 — higher, 23.8%
- O=C(Nc1ccc(O)c(-c2nc3ccccc3s2)c1)c1cc(=O)c2ccccc2o1 — lower, 5.18%
- O=C(Nc1ccccc1)C(=O)c1cn(CC(=O)N2CCCCC2)c2ccccc12 — lower, -31.2%
- O=C(CCC(=O)c1ccccc1)NC1CCCN(Cc2ccccc2F)C1 (stereo not shown) — lower, -11%
- N#Cc1c(SCC(=O)Nc2cccc(C(F)(F)F)c2)sc2c(O)cc(=O)[nH]c12 — higher, 19.5%
- Cc1cc2nnc(SC3CCOC3=O)n2c2ccccc12 (stereo not shown) — lower, -10.3%
- N=c1oc2cc(O)ccc2cc1C(=O)Nc1ccccn1 — higher, 20.5%
- CC(=O)Oc1ccc2ccccc2c1C(NC(=O)Cc1ccccc1)c1ccccc1 (stereo not shown) — lower, -11.4%
- O=C(COc1ccccc1)N=C1SC2CS(=O)(=O)CC2N1c1ccccc1F (stereo not shown) — lower, 3.73%
- CCCCCn1c(=O)c(C(=O)NCc2ccc(Cl)cc2)c(O)c2ccccc21 — lower, 4.19%
- COc1ccc(-n2c(=S)[nH]c3cc(C(=O)Nc4cc(C(N)=O)ccc4OC)ccc3c2=O)c(OC)c1 — higher, 26%
- Cc1cc(C)nc(NS(=O)(=O)c2ccc(NC(=O)C(C)Oc3ccccc3F)cc2)n1 (stereo not shown) — higher, 19.7%
- Cc1cc(C)cc(N(C(=O)c2csnn2)C(C(=O)NC2CCCC2)c2cccnc2)c1 (stereo not shown) — lower, 8.7%
- O=C(Cn1cc(C(F)(F)F)ccc1=O)NCc1ccc(F)cc1 — lower, 15.6%
- O=[N+]([O-])c1ccc2oc(C3CCCCC3)nc2c1 — lower, 7.67%
- CC(=O)c1ccc(NC(=S)N2CCCC(CO)C2)cc1 (stereo not shown) — lower, 5.17%
- Cc1nc2ccc(NC(=S)NC3CCCCC3)cc2nc1C — lower, -25.7%
- Cc1oc(-c2ccccc2)nc1C(=O)O — higher, 17%
- CCOc1ccc(CCNC(=O)CCS(=O)(=O)c2ccc(Br)cc2)cc1OCC — lower, 13.8%
- CC(C)NC(=O)CSc1nnc(CNC(=O)OC(C)(C)C)n1C — lower, 9.62%
- CCC(=O)c1c[nH]c(C(=O)NCc2cccnc2)c1 — higher, 21.3%
- Cn1cc([N+](=O)[O-])c(C(=O)NCc2cc3ccccc3[nH]2)n1 — lower, 5.96%
- CSc1ccccc1NC(=O)CSc1nnc(Cc2ccccc2)o1 — lower, -2.35%
- Cc1cccc(S(=O)(=O)c2c(N)n(-c3ccccc3)c3nc4ccccc4nc23)c1 — lower, 7.14%
- CCCn1c(NCc2ccc(C)o2)nc2ccccc21 — lower, -24.1%
- Cc1cc(C)cc(N(C(=O)CNC(=O)c2ccco2)C(C(=O)NC2CCCC2)c2ccncc2)c1 (stereo not shown) — lower, -11.6%
- CCN(CC)CCNC1=CC(=O)OC12CCCCC2 — lower, 9.93%
- CC(C)C(=O)c1cn(CC(=O)NCC2CCCO2)c2ccccc12 (stereo not shown) — lower, 9.59%
- O=C(COC(=O)Cc1ccccc1)NCCNC(=O)COC(=O)Cc1ccccc1 — lower, 1.43%
- CC(C)OCCCNC(=O)C1CCC(CNS(=O)(=O)c2ccccc2)CC1 (stereo not shown) — lower, -7.62%
- COc1cccc(CN2CCSCC2)c1OC — lower, 14.4%
- O=C1Nc2ccccc2/C1=C/c1ccccc1Cl — lower, 7.15%
- Cc1ccc(NC(=O)CCC(=O)O)cc1F — lower, -2.25%
- COc1cc2c(cc1OC)C(c1ccc(C(F)(F)F)cc1)CC(=O)N2 (stereo not shown) — lower, 3.75%
- Cc1ccc(NC(=O)Nc2ccnc(-c3cccnc3)n2)cc1 — lower, -23.4%
- Cc1ccc(C(=O)OCC(=O)NNC(=O)COc2ccc(Cl)cc2)c(O)c1 — lower, -2.08%
- COc1cccc(-c2cccc(NC(=O)C3CCN(C4CCC4)CC3)c2)c1 — lower, -51.7%
- CCOC(=O)Cc1nnc(NC(=O)CSc2nnc3c4ccccc4n(C)c3n2)s1 — lower, -40.9%
- CCOC(=O)[C@@H]1[C@H]2COc3ccc(Br)cc3[C@H]2N2C(=O)N(c3ccc(C)cc3)C(=O)[C@]12C — lower, -4.14%
- N#CNC(=Nc1cccc(F)c1)SCc1cccc(F)c1 — lower, 10.2%
- O=C(Nc1nc2ccc(S(=O)(=O)N3CCCCC3)cc2s1)C1CCCO1 (stereo not shown) — lower, -12.5%
- COc1ccc(CCNC(=O)c2nn(C)c3c2CS(=O)(=O)c2ccccc2-3)cc1OC — lower, 12.6%
- CCCCNc1c([N+](=O)[O-])ncn1C — lower, -6.98%
- CC[n+]1ccccc1/C=C1\Sc2ccc(C)cc2N1C.[I-] — lower, -62.5%
- CCOC(=O)c1c(-c2ccc(C)cc2)cn2ccccc12 — lower, 2.58%
- COc1ccccc1NC(=O)Nc1ccc(N2CCOCC2)cc1 — higher, 23.8%
- Cc1noc(C)c1S(=O)(=O)N1CCN(S(=O)(=O)c2ccccc2C#N)CC1 — higher, 21.1%
